Residue numbers refer to the chain shown, from its start. No constants are given. Whether binding was seen depends on the method and setting. In cells and extracts the contact can be indirect. Some binding calls cover weakened binding; strength is not graded here. For some of these results: Tags and fused reporters may be left off the sequences shown.
Columns and labels:
[1] = biological target: T1, native hThrRS-L, endogenous in HEK293T (human (endogenous in HEK293T)) (UniProt A2RTX5); assay: co-IP; native HEK293T cell lysate, IP with anti-hThrRS-L antibodies; western blotting
T1 sequence: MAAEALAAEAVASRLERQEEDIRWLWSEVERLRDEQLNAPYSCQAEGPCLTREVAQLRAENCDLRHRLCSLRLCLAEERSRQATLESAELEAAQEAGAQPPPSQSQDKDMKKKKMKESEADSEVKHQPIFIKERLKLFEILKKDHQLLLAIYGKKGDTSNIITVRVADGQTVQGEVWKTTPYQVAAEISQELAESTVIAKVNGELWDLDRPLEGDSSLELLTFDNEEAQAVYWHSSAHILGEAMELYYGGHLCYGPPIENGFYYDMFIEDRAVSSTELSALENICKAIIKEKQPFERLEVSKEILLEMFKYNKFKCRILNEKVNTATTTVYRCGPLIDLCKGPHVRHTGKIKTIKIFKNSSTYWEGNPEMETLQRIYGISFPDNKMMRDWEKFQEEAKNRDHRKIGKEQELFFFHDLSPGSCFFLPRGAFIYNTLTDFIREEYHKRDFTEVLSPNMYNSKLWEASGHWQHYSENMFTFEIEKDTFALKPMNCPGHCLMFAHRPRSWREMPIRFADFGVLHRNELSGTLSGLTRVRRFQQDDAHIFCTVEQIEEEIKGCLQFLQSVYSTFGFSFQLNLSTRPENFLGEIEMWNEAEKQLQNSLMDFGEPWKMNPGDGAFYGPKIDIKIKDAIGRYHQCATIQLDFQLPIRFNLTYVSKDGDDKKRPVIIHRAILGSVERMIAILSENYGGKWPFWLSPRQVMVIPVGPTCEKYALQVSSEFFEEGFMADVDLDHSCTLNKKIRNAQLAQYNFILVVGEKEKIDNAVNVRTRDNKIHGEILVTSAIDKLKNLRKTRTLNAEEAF

Sequences of proteins named here, by UniProt entry; tags and fusion partners are left off.
UniProt P07814: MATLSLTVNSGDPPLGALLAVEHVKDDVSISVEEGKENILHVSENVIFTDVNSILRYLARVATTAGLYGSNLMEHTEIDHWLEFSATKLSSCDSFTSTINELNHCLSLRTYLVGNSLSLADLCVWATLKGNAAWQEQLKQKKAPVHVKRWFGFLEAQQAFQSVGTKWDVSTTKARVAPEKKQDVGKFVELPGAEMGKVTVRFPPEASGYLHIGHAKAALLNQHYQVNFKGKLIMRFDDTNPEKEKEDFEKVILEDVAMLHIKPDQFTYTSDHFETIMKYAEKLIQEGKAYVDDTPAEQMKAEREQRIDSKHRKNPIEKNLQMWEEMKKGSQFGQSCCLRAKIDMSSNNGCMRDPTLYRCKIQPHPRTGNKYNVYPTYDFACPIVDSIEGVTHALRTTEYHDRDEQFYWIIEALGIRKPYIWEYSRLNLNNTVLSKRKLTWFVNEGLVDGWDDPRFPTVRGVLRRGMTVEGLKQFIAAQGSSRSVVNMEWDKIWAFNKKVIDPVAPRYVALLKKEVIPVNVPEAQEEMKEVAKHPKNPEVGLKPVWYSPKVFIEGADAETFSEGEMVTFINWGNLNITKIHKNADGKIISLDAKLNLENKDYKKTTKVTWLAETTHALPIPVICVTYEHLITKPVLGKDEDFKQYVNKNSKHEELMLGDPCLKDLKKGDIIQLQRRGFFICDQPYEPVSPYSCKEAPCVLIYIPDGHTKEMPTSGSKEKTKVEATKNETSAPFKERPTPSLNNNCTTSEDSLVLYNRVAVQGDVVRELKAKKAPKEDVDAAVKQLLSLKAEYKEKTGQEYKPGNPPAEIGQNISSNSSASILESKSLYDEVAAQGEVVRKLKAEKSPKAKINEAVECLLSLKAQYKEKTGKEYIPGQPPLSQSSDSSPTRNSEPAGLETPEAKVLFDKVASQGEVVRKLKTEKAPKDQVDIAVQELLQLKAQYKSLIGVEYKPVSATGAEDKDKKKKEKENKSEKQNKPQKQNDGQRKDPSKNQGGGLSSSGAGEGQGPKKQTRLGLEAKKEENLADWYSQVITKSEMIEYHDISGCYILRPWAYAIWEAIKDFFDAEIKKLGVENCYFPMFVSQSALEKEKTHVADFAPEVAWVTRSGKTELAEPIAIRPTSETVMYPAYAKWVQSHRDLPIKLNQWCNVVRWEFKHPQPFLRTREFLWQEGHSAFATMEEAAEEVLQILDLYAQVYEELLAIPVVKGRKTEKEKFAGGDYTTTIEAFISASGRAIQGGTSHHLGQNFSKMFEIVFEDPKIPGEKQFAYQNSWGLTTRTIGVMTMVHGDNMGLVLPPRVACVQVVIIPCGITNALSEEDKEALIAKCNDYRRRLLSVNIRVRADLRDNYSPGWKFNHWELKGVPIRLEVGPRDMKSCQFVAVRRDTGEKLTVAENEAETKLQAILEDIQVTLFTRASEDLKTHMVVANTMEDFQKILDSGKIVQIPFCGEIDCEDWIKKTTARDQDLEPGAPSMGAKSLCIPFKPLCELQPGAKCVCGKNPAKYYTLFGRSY

[2] = biological target: T2, hThrRS-L-T163D with a C-terminal FLAG tag (human) (UniProt A2RTX5); assay: co-IP; FLAG-tagged hThrRS-L or mutant overexpressed in HEK293T; IP with anti-FLAG, Dynabeads protein G, 4°C; endogenous partners detected by western blotting
T2 sequence: T1 sequence with T163D

[3] = biological target: T3, hThrRS-L-S453D with a C-terminal FLAG tag (human) (UniProt A2RTX5); assay: as above
T3 sequence: T1 sequence with S453D

[4] = biological target: T4, native p43 (AIMP1), endogenous in human cells (human (endogenous in HEK293T and HeLa)) (UniProt Q12904); assay: co-IP; transfected HEK293T lysate, IP with anti-p43 antibodies; western blotting
T4 sequence: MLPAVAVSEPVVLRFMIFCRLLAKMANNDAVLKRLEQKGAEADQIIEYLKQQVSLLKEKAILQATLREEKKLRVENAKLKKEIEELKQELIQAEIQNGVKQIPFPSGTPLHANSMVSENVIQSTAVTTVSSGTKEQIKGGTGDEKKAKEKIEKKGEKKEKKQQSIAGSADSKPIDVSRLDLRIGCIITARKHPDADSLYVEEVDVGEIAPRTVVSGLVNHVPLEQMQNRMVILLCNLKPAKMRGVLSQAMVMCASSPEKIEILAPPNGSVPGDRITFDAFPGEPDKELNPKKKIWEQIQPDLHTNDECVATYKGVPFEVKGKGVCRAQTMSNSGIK

- binding [1]: binds
- binding [2]: binds
- binding [3]: binds
- binding [4]: binds
Substance: GluProRS, endogenous in HEK293T (from UniProt P07814 1-1512) (enzyme)
